Among all 52,000 compounds or so, about 1,700 (3.3%) were called active. No stated cut-off is given here; in the data, active means survival mostly below about 52% (no sharp cut-off); inactive means mostly above about 56%. The list shows a part of the results.

From PubChem BioAssay AID463173 (ICCB-Longwood Screening Facility, Harvard Medical School, 2010) come the findings set out here.

This assay deals with Wild type. Briefly: S. aureus survival, RN4220 and DeltatarO strains – OD600, teichoic acid synthesis inhibitors, primary screen (AID 463173). The note with it: S. aureus RN4220 wild type/DeltatarO growth, OD600, 18 h, active compounds read low; concentration not given here unless noted.
In the case of `CC(c1ccccc1)N1CCNCC1` (stereo unspecified), the survival was inactive: 101%.
Consider `CCC1(CCc2ccncc2)C(=O)NC(=O)NC1=O`, for which the survival was inactive: 114%.
In the case of `CCc1ccc(-n2nc(C)c3c2NC(=O)CSC3c2ccc(OC)cc2OC)cc1` (stereo unspecified) it was inactive: 94%; in that of `CCC(C(=O)Nc1ccccc1F)N1C(=O)CN=C(c2ccccc2)c2ccccc21` (stereo unspecified), inactive: 80%; in that of `CCOC(=O)c1ccc(NC(=O)c2cccn(Cc3ccccc3F)c2=O)cc1`, inactive: 75%.
In the case of `CCN=Cc1c(O)n(C)c(=O)n(C)c1=O` it was inactive: 118%.
In the case of `N#Cc1cc(F)c(N2CCNCC2)cc1Cl` it was inactive: 130%; in that of `N#Cc1ccccc1NC(=O)c1cccn(Cc2ccccc2)c1=O`, inactive: 70%.
As to `COc1ccc(-c2nc(CN3C(=O)CN=C(c4ccccc4Cl)c4cc(Cl)ccc43)c(C)o2)cc1OC`, the survival was inactive: 77%.
Consider `O=C(Cn1cc(C(=O)c2ccccc2)c2ccccc21)Nc1ccc(Br)cc1`, for which the survival was inactive: 65%.
The figure for `CCCc1ccc(OCC(=O)Nc2ccc(Cl)cc2C(=O)c2ccccc2)cc1` is inactive: 66%.
In the case of `Cc1cccc(CN2C(=O)CN=C(c3ccccc3)c3cc(Cl)ccc32)c1`, the survival is inactive: 73%.
For `CC(C)c1ccc(NC(=O)CN2C(=O)CN=C(c3ccccc3)c3ccccc32)cc1`, the survival is inactive: 82%.
As for `O=C(NC1CC2CCC(C1)N2)c1ccccc1` (stereo unspecified), the survival is inactive: 96%.
In the case of `O=C(CNC1CCCCC1)N1CCC2(CC1)OCCO2` it was inactive: 110%; in that of `COc1ccc(OCC(=O)N2CCN(CCc3ccccn3)CC2)cc1`, inactive: 82%; in that of `CC1(C)CC(NC(=O)CN2CCCC2=O)CC(C)(C)N1`, inactive: 111%.
In the case of `Cc1ccc(-n2c(/C=C/c3cc(Br)cs3)nc3ccccc3c2=O)cc1C` it was inactive: 68%; in that of `COc1ccc(C)cc1NC(=O)c1cccn(Cc2ccccc2Cl)c1=O`, inactive: 78%.
Take `N#CC(C#N)=Cc1ccc(N2CCCCC2)cc1`: the survival was inactive: 112%.
The figure for `Cc1cccc(C)c1OCC(=O)Nc1ccc(Cl)cc1C(=O)c1ccccc1` is inactive: 30%; for `O=C(COc1ccccc1[N+](=O)[O-])N1CCN(CCc2ccncc2)CC1` it is inactive: 85%; for `COc1ccc(CN2CCNCC2)cc1` it is inactive: 98%.
As to `C1CCN2C(C1)N1CCCCC1N1CCCCC21` (stereo unspecified), the survival is inactive: 110%.
The figure for `CCC(C)N1CCN(Cc2cc(OC)c(OC)cc2OC)CC1` (stereo unspecified) is inactive: 123%; for `CN1C(=O)C(=Cc2ccco2)C(=O)N(C)C1=O` it is inactive: 109%; for `Cn1c(=O)n(C)c2cc(CNCCc3ccccc3F)ccc21` it is inactive: 88%.
In the case of `Cc1ccc(-n2c(/C=C/c3ccccc3)nc3ccccc3c2=O)cc1Cl` it was inactive: 86%; in that of `CC(=O)OC1(c2ccccc2)CCN(C)C2CCCCC21` (stereo unspecified), inactive: 112%; in that of `CN1/C(=C\C=C2C(=O)NC(=O)NC2=O)C(C)(C)c2ccccc21`, inactive: 116%.
The figure for `CCCNCCc1ccccc1` is inactive: 106%; for `COc1ccc(OC)c(CCNCc2c(C(=O)O)c(C)n(Cc3ccc(F)cc3Cl)c2C)c1` it is inactive: 99%; for `OC1(c2ccc(F)cc2)CC2CCC(C1)N2Cc1nnnn1C1CCCCC1` (stereo unspecified) it is inactive: 104%.
Consider `COc1ccc(NC(=O)CCc2nc(C3=CCN(Cc4cccc(C)c4)CC3)no2)c(OC)c1`, for which the survival is inactive: 77%.
As for `Cc1cc(OCC(=O)N2CCN(CCc3ccncc3)CC2)cc(C)c1Cl`, the survival was inactive: 84%.
In the case of `CCC1(CC)C(=O)NC(=NCc2ccc(OC)cc2)N(C)C1=O` it was inactive: 99%.
For the compound `Cc1cccc(-n2c(/C=C\c3cccc(Br)c3)nc3ccccc3c2=O)c1`, the survival is inactive: 126%.
The figure for `O=C1NC(=O)N(c2ccc3c(c2)OCO3)C(=O)/C1=C/c1ccsc1` is inactive: 105%; for `COc1ccc(C2CC(=O)Oc3c2c(=O)oc2ccccc32)c(OC)c1OC` (stereo unspecified) it is inactive: 70%.
Turning to `CC12CNCC(C)(CN(Cc3ccccc3)C1)C2`, the survival is inactive: 98%.
In the case of `Cc1ccc(Cn2cccc(C(=O)Nc3ccc(C)c(Cl)c3)c2=O)cc1` it was inactive: 75%.
The figure for `Cc1ccccc1-c1nc2ccccc2c(=O)n1C` is inactive: 113%; for `Cc1ccc(CNC(=O)CCCn2c(=O)c3sccc3n(CC(=O)Nc3c(C)cccc3C)c2=O)cc1` it is inactive: 91%.
In the case of `Cc1cccc(CNCCc2ccccc2)n1` it was inactive: 115%; in that of `COc1ccc2c(c1OC)C(=O)OC2C1c2cc3c(cc2CCN1C)OCO3` (stereo unspecified), inactive: 101%; in that of `CCc1cc2c(s1)NC(=O)CN=C2c1cccs1`, inactive: 112%.
For `CNCC(C)c1ccccc1` (stereo unspecified), the survival was inactive: 96%.
The figure for `OC1(c2ccc(F)cc2)CC2CCC(C1)N2Cc1nnnn1Cc1ccco1` (stereo unspecified) is inactive: 103%; for `Cc1nnc(NC(=O)c2cccn(Cc3ccccc3)c2=O)s1` it is inactive: 91%.
The figure for `C1CCCN(C2CCNCC2)CC1` is inactive: 106%; for `Cc1cccc(OC(C)C(=O)NCC2(N(C)C)CCCCC2)c1C` (stereo unspecified) it is inactive: 88%.
The figure for `O=C(Nc1nc2ccccc2s1)c1cccn(Cc2ccccc2)c1=O` is inactive: 73%; for `CCCc1nc(SC)ncc1C(=O)Nc1ccc(Cl)cc1C(=O)c1ccccc1` it is inactive: 84%; for `CCOc1ccc(CN(CCc2ccc3c(c2)OCO3)Cc2cccc(Br)c2)cc1` it is inactive: 65%.
With `O=C(COc1ccccc1Cl)N1CCN(CCc2ccccn2)CC1`, the survival is inactive: 110%.
For the compound `O=c1c2ccccc2nc(CN2CCOCC2)n1-c1cccc(C(F)(F)F)c1`, the survival is inactive: 113%.
The figure for `O=C1C=C2C3CCN(CC3)C2CC1` (stereo unspecified) is inactive: 112%.
The figure for `Cc1ccccc1-n1nc(C)c2c1NC(=O)CSC2c1ccccc1C(F)(F)F` (stereo unspecified) is inactive: 58%; for `COc1ccccc1CN1CCN(C(=O)COc2cccc(C)c2)CC1` it is inactive: 123%; for `COc1ccc(NC(=O)CN2C(=O)CN=C(c3ccccc3)c3ccccc32)c(OC)c1` it is inactive: 71%.
The figure for `CC(=O)Nc1c(O)[nH]c(=S)[nH]c1=O` is inactive: 104%; for `CCOc1ccc(CN(CCc2ccc3c(c2)OCO3)Cc2ccc(CC)cc2)cc1` it is inactive: 54%; for `O=C(COc1ccc2ccccc2c1)N1CCN(Cc2ccncc2)CC1` it is inactive: 103%.
As to `Cc1oc2cc3oc(=O)c(CCC(=O)N4CCCCC4)c(C)c3cc2c1C`, the survival was inactive: 113%.
The figure for `O=C(Nc1ccc(OC(F)(F)F)cc1)c1cccn(Cc2ccccc2Cl)c1=O` is inactive: 131%.
For the compound `O=C(c1ccc2c(c1)N(Cc1c(F)cccc1Cl)C(=O)c1ccccc1S2)N1CCC2(CC1)OCCO2`, the survival was inactive: 82%.
In the case of `Cc1ccc(C)c(CN2C(=O)c3ccccc3Sc3ccc(C(=O)N4CCC5(CC4)OCCO5)cc32)c1` it was active: 14%; in that of `Cc1cccc(CN2C(=O)CN=C(c3ccccc3Cl)c3cc(Cl)ccc32)c1`, inactive: 73%; in that of `COc1ccc(N=C2SCCCN2C)cc1`, inactive: 91%.
In the case of `C=CCn1c(C)c(C(=O)OCC)c2cc(O)ccc21` it was inactive: 110%.
In the case of `O=C1CC(c2cccnc2)Nc2ccc3ccccc3c21` (stereo unspecified) it was inactive: 98%; in that of `Cc1ccc2scc(N3CCN(C)CC3)c(=O)c2c1`, inactive: 136%; in that of `COc1ccc(C=C(C#N)C#N)c2ccccc12`, inactive: 101%.
Turning to `Cc1ccc(-n2c(/C=C/c3ccccc3)nc3ccccc3c2=O)cc1C`, the survival is inactive: 74%.
The figure for `CCCCn1c(=O)c(C(=O)NC)c(O)c2ccccc21` is inactive: 112%; for `O=c1c2ccccc2nc(CN2CCOCC2)n1-c1ccccc1F` it is inactive: 116%.
In the case of `CC(=O)c1ccc(NC(=O)c2sc3nc4c(cc3c2N)N2CCC4CC2)cc1` it was inactive: 95%; in that of `Cc1ccc(-n2c(/C=C/c3cccc(C(F)(F)F)c3)nc3ccccc3c2=O)cc1`, inactive: 71%; in that of `CCC(CC)NC1CCCCC1OC` (stereo unspecified), inactive: 117%.
In the case of `NC(=O)c1ccc(NC(=O)c2cccn(Cc3ccccc3)c2=O)cc1` it was inactive: 89%.
Turning to `CCOc1ccc(CN2C(=O)c3ccccc3Sc3ccc(C(=O)N4CCC5(CC4)OCCO5)cc32)cc1`, the survival is inactive: 85%.
With `Cc1c(C(c2ccc(O)cc2)c2c(O)c3ccccc3oc2=O)c(=O)n(-c2ccccc2)n1C` (stereo unspecified), the survival is inactive: 47%.
In the case of `CCSc1nnc(NC(=O)c2cccn(Cc3ccc(Cl)cc3)c2=O)s1` it was inactive: 45%; in that of `COc1ccccc1CNCCc1ccccc1`, inactive: 102%.
The figure for `N#CC1=C(N)Oc2c(c(=O)oc3ccccc23)C1C1CC=CCC1` (stereo unspecified) is inactive: 113%; for `Cc1cccc(-n2c(/C=C/c3cccc4ccccc34)nc3ccccc3c2=O)c1` it is inactive: 74%.
In the case of `O=c1c2ccccc2nc(/C=C\c2cccc(Br)c2)n1-c1ccc(O)cc1` it was inactive: 108%; in that of `COc1ccc(NC(=O)c2cccn(Cc3ccc(Cl)cc3)c2=O)c(OC)c1`, inactive: 66%.
For the compound `N#Cc1cc2c(nc1SCC(=O)Nc1ccc(Cl)c(C(F)(F)F)c1)C1CCN2CC1`, the survival is active: 2%.
In the case of `O=C1NC(=O)C(C(CC(=O)c2ccccc2)c2ccccc2)C(=O)N1` (stereo unspecified) it was inactive: 116%.
In the case of `O=C(COc1ccccc1)N1CCN(Cc2ccc(Br)cc2)CC1`, the survival was inactive: 100%.
In the case of `O=C(/C=C/c1ccco1)C1C(=O)c2ccccc2C1=O` it was inactive: 111%.
The figure for `CC1CN(C)C(C)(C)CC1(O)c1ccccc1` (stereo unspecified) is inactive: 105%; for `O=C(Nc1ccccc1C(F)(F)F)c1cccn(Cc2ccccc2)c1=O` it is inactive: 69%.
Regarding `O=C(COc1ccccc1[N+](=O)[O-])N1CCN(CCc2ccccn2)CC1`, the survival was inactive: 81%.
The figure for `Cc1ccccc1-n1c(/C=C/c2ccccc2F)nc2ccccc2c1=O` is active: 7%.
The figure for `NC(=O)CN1C2CCC1CC(NC(=O)C1CC1)C2` (stereo unspecified) is inactive: 103%; for `Cc1ccc(-n2c(/C=C/c3cccc4ccccc34)nc3ccccc3c2=O)cc1` it is inactive: 73%.
The figure for `COCCNC(=O)CN1C2CCC1CC(O)(c1cccnc1)C2` (stereo unspecified) is inactive: 121%.
For `CCOC(=O)c1ccc(NC(=O)CSc2nc3c(cc2C#N)N2CCC3CC2)cc1`, the survival is inactive: 84%.
The figure for `S=c1[nH]nc(CCN2CCN(c3ccc(Cl)cc3)CC2)n1-c1ccccc1` is inactive: 111%.
